Experiment [1] deals with hFOLR1 (human) (UniProt P15328). Nature of the experiment: BLI (Octet), captured on AHC sensor, antigen in solution.
The target is the same in experiment [2]. Nature of the experiment: ELISA. (An ELISA detects its analyte on a solid surface through an enzyme-linked reagent.)

Chain of UniProt P15328 (P15328 25-234 limits assumed): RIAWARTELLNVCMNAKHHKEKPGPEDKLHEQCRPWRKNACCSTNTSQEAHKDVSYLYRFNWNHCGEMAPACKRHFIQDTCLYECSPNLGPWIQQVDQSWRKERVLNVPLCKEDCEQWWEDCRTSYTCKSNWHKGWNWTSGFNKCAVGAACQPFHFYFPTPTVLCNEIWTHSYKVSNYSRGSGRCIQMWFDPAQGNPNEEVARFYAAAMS

B1: Anti-FOLR1x4 (GGS)3 (Fc fusion, part only; not given: hinge or second linker, not shown: small tags and cut ends)
chain, part: QVQLVESGGGLVQPGGSLRLSCAASGFTVSNSVMAWYRQTPGNEREFVAIINSIGITNYADSVKGRFTISRDNSKNTLYLQMNSLRAEDTAVYVCNRNFDRIYWGQGTLVTVSSGGSGGSGGSQVQLVESGGGLVQPGGSLRLSCAASGFTVSNSVMAWYRQTPGNEREFVAIINSIGITNYADSVKGRFTISRDNSKNTLYLQMNSLRAEDTAVYVCNRNFDRIYWGQGTLVTVSS[left out - human IgG1 Fc]
With B1, in experiment [1], the Kd (usually the free concentration of one partner at which half of the binding sites on the other are occupied at equilibrium, for simple one-to-one binding) amounted to 2.52 nM; the koff (usually a measure of how fast the partners let go of each other) was 0.00087 s⁻¹; the kon (as a rule, the rate constant with which the complex forms) was determined as 345000 M⁻¹ s⁻¹. For the same molecule, the EC50 (in general, the concentration that produces a half-maximal response) in experiment [2] was found to be 0.11 nM.

B2: Anti-FOLR1x2; Anti-DLL3x2; (GGS)3 (bispecific antibody, part only; not given: hinge or second linker, not shown: small tags and cut ends)
chain, part: QVQLVESGGGLVQPGGSLRLSCAASGFTVSNSVMAWYRQTPGNEREFVAIINSIGITNYADSVKGRFTISRDNSKNTLYLQMNSLRAEDTAVYVCNRNFDRIYWGQGTLVTVSSGGSGGSGGSEVQLVESGGGEVQPGGSLRLSCAASGSIFSINAMGWYRQAPGKQRELVAGFTGDTNTIYAESVKGRFTISRDNAKNTVYLQMSSLRAEDTAVYYCAADVQLFSRDYEFYWGQGTLVTVK[left out - human IgG1 Fc]
In experiment [1], B2 returned a Kd of 2.68 nM, a koff of 0.00102 s⁻¹ and a kon of 381000 M⁻¹ s⁻¹. Besides, in experiment [2], the EC50 amounted to 0.14 nM.

Values taken from US20260055180A1.
